These results are taken from the supplement of paper PMC10369915.

This is one part of the list. Cut-off read from the data, not from the text of the source: active = 3.2 or more and inactive = the rest. Only a few entries rise above the background.
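Note: displayed peptides selected on beads carrying the immobilized SH2 domain, with library peptides lacking any tyrosine serving as negative controls.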

In one assay the target is SHP2 C-SH2 domain E139D. Description: enrichment score (SH2-bound / input frequency) (ratio); bacterial display of known human phosphotyrosine sites (pTyr-Var adds point mutants) read by sequencing; higher = stronger binding; tyrosines were phosphorylated by kinases first. To be noted: peptide library: pTyr-Var.
With QDRDLYPCPGT [RLF_Y671], the enrichment score is inactive: 0.726.
On the same count and under the same terms, with EKAEVYRSENE [RIOK2_Y348_G349R] the figure was inactive: 0.678; with TVFENYVADIK [RHOA_Y42_E47K], inactive: 1.11; with RNFGTYTAGLS [RHBDD1_Y264_D262G_YF], inactive: 0.888.
As for YEEDSYVKRSQ [RET_Y905], the enrichment score was inactive: 0.735.
Regarding ESAAIYNPVIF [RHO_Y301_K296E_YF], the enrichment score is inactive: 0.715.
Same read-out and setting: the figure for DFGSGYPNDPK [RNASEH2A_Y210_YF] is inactive: 0.602; for LSQDVYEEDSF [RET_Y900_R897Q_YF] it is inactive: 0.519; for EYGSGYPNDPK [RNASEH2A_Y210_D205E] it is inactive: 0.49.
Same read-out and setting: with LAIEGYVVVCK [RHO_Y136_R135G] the figure was inactive: 1.05.
As for YEEDSYVTRSQ [RET_Y905_K907T], the enrichment score was inactive: 0.567.
The same measure, in the same setting: with KWHREYNSKYV [RICTOR_Y835] the figure was inactive: 1.89; with SHTPSYCDESL [RITA1_Y109], inactive: 0.637.
Still for that read-out and setting: the figure for KRAAIYNPVIY [RHO_Y301_S297R] is inactive: 0.803; for CSEEMYRLMLQ [RET_Y981] it is inactive: 1.07; for GGDAVYTNGAI [RFX2_Y82] it is inactive: 0.649.
Take LLIVEYAKFGS [RET_Y806_YF]: the enrichment score was inactive: 2.91.
Same read-out and setting: with KLLLKYSFHDA [RNF213_Y4141_V4146A] the figure was inactive: 2.13; with KVGPGYLGSGG [RET_Y826], inactive: 0.803.

The target of the next assay is SHP2 C-SH2 domain wild-type. The assay is described as above. Conditions: peptide library: pTyr-Var.
Take QDRDLYPCPGT [RLF_Y671]: the enrichment score was inactive: 0.616.
Same read-out and setting: the figure for EKAEVYRSENE [RIOK2_Y348_G349R] is inactive: 0.522; for TVFENYVADIK [RHOA_Y42_E47K] it is inactive: 0.841.
On the same count and under the same terms, with RNFGTYTAGLS [RHBDD1_Y264_D262G_YF] the figure was inactive: 0.74; with YEEDSYVKRSQ [RET_Y905], inactive: 0.428; with ESAAIYNPVIF [RHO_Y301_K296E_YF], inactive: 0.8.
Still for that read-out and setting: with DFGSGYPNDPK [RNASEH2A_Y210_YF] the figure was inactive: 0.611; with LSQDVYEEDSF [RET_Y900_R897Q_YF], inactive: 0.601.
For EYGSGYPNDPK [RNASEH2A_Y210_D205E], the enrichment score was inactive: 0.433.
Still for that read-out and setting: with LAIEGYVVVCK [RHO_Y136_R135G] the figure was inactive: 1.36; with YEEDSYVTRSQ [RET_Y905_K907T], inactive: 0.491.
Same read-out and setting: the figure for KWHREYNSKYV [RICTOR_Y835] is inactive: 1.41.
On the same count and under the same terms, the figure for SHTPSYCDESL [RITA1_Y109] is inactive: 0.621; for KRAAIYNPVIY [RHO_Y301_S297R] it is inactive: 0.744.
CSEEMYRLMLQ [RET_Y981]: the enrichment score is inactive: 1.42.
On the same count and under the same terms, with GGDAVYTNGAI [RFX2_Y82] the figure was inactive: 0.669; with LLIVEYAKFGS [RET_Y806_YF], active: 3.63.
On the same count and under the same terms, the figure for KLLLKYSFHDA [RNF213_Y4141_V4146A] is inactive: 2.11; for KVGPGYLGSGG [RET_Y826] it is inactive: 0.806.

The next assay addresses SHP2 N-SH2 domain L43F. The description is as above. To be noted: peptide library: pTyr-Var.
On to QDRDLYPCPGT [RLF_Y671], for which the enrichment score is inactive: 0.551.
The same measure, in the same setting: the figure for EKAEVYRSENE [RIOK2_Y348_G349R] is inactive: 0.583; for TVFENYVADIK [RHOA_Y42_E47K] it is inactive: 0.762; for RNFGTYTAGLS [RHBDD1_Y264_D262G_YF] it is inactive: 0.82.
On the same count and under the same terms, the figure for YEEDSYVKRSQ [RET_Y905] is inactive: 0.554.
Same read-out and setting: with ESAAIYNPVIF [RHO_Y301_K296E_YF] the figure was inactive: 0.702; with DFGSGYPNDPK [RNASEH2A_Y210_YF], inactive: 0.454; with LSQDVYEEDSF [RET_Y900_R897Q_YF], inactive: 0.494.
EYGSGYPNDPK [RNASEH2A_Y210_D205E]: the enrichment score was inactive: 0.51.
Still for that read-out and setting: with LAIEGYVVVCK [RHO_Y136_R135G] the figure was inactive: 0.952; with YEEDSYVTRSQ [RET_Y905_K907T], inactive: 0.5.
Still for that read-out and setting: with KWHREYNSKYV [RICTOR_Y835] the figure was inactive: 1.77; with SHTPSYCDESL [RITA1_Y109], inactive: 0.704; with KRAAIYNPVIY [RHO_Y301_S297R], inactive: 0.903.
Still for that read-out and setting: the figure for CSEEMYRLMLQ [RET_Y981] is inactive: 1.07.
Take GGDAVYTNGAI [RFX2_Y82]: the enrichment score was inactive: 0.626.
As for LLIVEYAKFGS [RET_Y806_YF], the enrichment score was inactive: 3.05.
Same read-out and setting: with KLLLKYSFHDA [RNF213_Y4141_V4146A] the figure was inactive: 2.2.
Regarding KVGPGYLGSGG [RET_Y826], the enrichment score is inactive: 0.786.

The next assay concerns the target SHP2 N-SH2 domain T42A. Described as above. Conditions: peptide library: pTyr-Var.
As for QDRDLYPCPGT [RLF_Y671], the enrichment score is inactive: 0.503.
Consider EKAEVYRSENE [RIOK2_Y348_G349R], for which the enrichment score was inactive: 0.456.
Same read-out and setting: the figure for TVFENYVADIK [RHOA_Y42_E47K] is inactive: 0.773; for RNFGTYTAGLS [RHBDD1_Y264_D262G_YF] it is inactive: 0.897; for YEEDSYVKRSQ [RET_Y905] it is inactive: 0.606.
Still for that read-out and setting: the figure for ESAAIYNPVIF [RHO_Y301_K296E_YF] is inactive: 0.663.
Same read-out and setting: with DFGSGYPNDPK [RNASEH2A_Y210_YF] the figure was inactive: 0.571.
As to LSQDVYEEDSF [RET_Y900_R897Q_YF], the enrichment score is inactive: 0.454.
Take EYGSGYPNDPK [RNASEH2A_Y210_D205E]: the enrichment score is inactive: 0.378.
Turning to LAIEGYVVVCK [RHO_Y136_R135G], the enrichment score is inactive: 1.13.
Take YEEDSYVTRSQ [RET_Y905_K907T]: the enrichment score is inactive: 0.513.
Same read-out and setting: with KWHREYNSKYV [RICTOR_Y835] the figure was inactive: 1.66.
Turning to SHTPSYCDESL [RITA1_Y109], the enrichment score is inactive: 0.576.
The same measure, in the same setting: with KRAAIYNPVIY [RHO_Y301_S297R] the figure was inactive: 0.748; with CSEEMYRLMLQ [RET_Y981], inactive: 0.878.
Take GGDAVYTNGAI [RFX2_Y82]: the enrichment score was inactive: 0.615.
As for LLIVEYAKFGS [RET_Y806_YF], the enrichment score was inactive: 2.85.
Still for that read-out and setting: the figure for KLLLKYSFHDA [RNF213_Y4141_V4146A] is inactive: 1.84; for KVGPGYLGSGG [RET_Y826] it is inactive: 0.744.

For a further assay, the target named is SHP2 N-SH2 domain T52S. The assay is described as above. Conditions: peptide library: pTyr-Var.
As for QDRDLYPCPGT [RLF_Y671], the enrichment score was inactive: 0.71.
On the same count and under the same terms, the figure for EKAEVYRSENE [RIOK2_Y348_G349R] is inactive: 0.511; for TVFENYVADIK [RHOA_Y42_E47K] it is inactive: 0.774.
The same measure, in the same setting: with RNFGTYTAGLS [RHBDD1_Y264_D262G_YF] the figure was inactive: 0.765; with YEEDSYVKRSQ [RET_Y905], inactive: 0.673; with ESAAIYNPVIF [RHO_Y301_K296E_YF], inactive: 0.963.
The same measure, in the same setting: with DFGSGYPNDPK [RNASEH2A_Y210_YF] the figure was inactive: 0.573; with LSQDVYEEDSF [RET_Y900_R897Q_YF], inactive: 0.593; with EYGSGYPNDPK [RNASEH2A_Y210_D205E], inactive: 0.458.
Regarding LAIEGYVVVCK [RHO_Y136_R135G], the enrichment score is inactive: 0.807.
Still for that read-out and setting: the figure for YEEDSYVTRSQ [RET_Y905_K907T] is inactive: 0.426.
On the same count and under the same terms, with KWHREYNSKYV [RICTOR_Y835] the figure was inactive: 1.7.
The same measure, in the same setting: the figure for SHTPSYCDESL [RITA1_Y109] is inactive: 0.69; for KRAAIYNPVIY [RHO_Y301_S297R] it is inactive: 0.689.
As to CSEEMYRLMLQ [RET_Y981], the enrichment score was inactive: 1.16.
Same read-out and setting: with GGDAVYTNGAI [RFX2_Y82] the figure was inactive: 0.626; with LLIVEYAKFGS [RET_Y806_YF], inactive: 2.76.
Still for that read-out and setting: with KLLLKYSFHDA [RNF213_Y4141_V4146A] the figure was inactive: 2.02; with KVGPGYLGSGG [RET_Y826], inactive: 0.824.

A further assay has as its target SHP2 N-SH2 domain wild-type. Described as above. To be noted: peptide library: pTyr-Var.
For QDRDLYPCPGT [RLF_Y671], the enrichment score was inactive: 0.695.
Same read-out and setting: the figure for EKAEVYRSENE [RIOK2_Y348_G349R] is inactive: 0.633; for TVFENYVADIK [RHOA_Y42_E47K] it is inactive: 0.743.
Consider RNFGTYTAGLS [RHBDD1_Y264_D262G_YF], for which the enrichment score is inactive: 1.02.
As for YEEDSYVKRSQ [RET_Y905], the enrichment score was inactive: 0.785.
The same measure, in the same setting: the figure for ESAAIYNPVIF [RHO_Y301_K296E_YF] is inactive: 0.881; for DFGSGYPNDPK [RNASEH2A_Y210_YF] it is inactive: 0.623; for LSQDVYEEDSF [RET_Y900_R897Q_YF] it is inactive: 0.686.
Still for that read-out and setting: with EYGSGYPNDPK [RNASEH2A_Y210_D205E] the figure was inactive: 0.56; with LAIEGYVVVCK [RHO_Y136_R135G], inactive: 1.49; with YEEDSYVTRSQ [RET_Y905_K907T], inactive: 0.574.
Still for that read-out and setting: the figure for KWHREYNSKYV [RICTOR_Y835] is inactive: 1.42; for SHTPSYCDESL [RITA1_Y109] it is inactive: 0.866; for KRAAIYNPVIY [RHO_Y301_S297R] it is inactive: 0.698.
As to CSEEMYRLMLQ [RET_Y981], the enrichment score is inactive: 1.37.
The same measure, in the same setting: the figure for GGDAVYTNGAI [RFX2_Y82] is inactive: 0.746.
On to LLIVEYAKFGS [RET_Y806_YF], for which the enrichment score is inactive: 2.91.
The same measure, in the same setting: with KLLLKYSFHDA [RNF213_Y4141_V4146A] the figure was inactive: 2.34.
On the same count and under the same terms, the figure for KVGPGYLGSGG [RET_Y826] is inactive: 0.615.
